The supplement of paper PMC12217912
This is one part of the list. The full chains were built here from the parent and the listed change. Values near 0.05 are background.

B1: TEV protease; numbered along this chain (parent)
chain: MGESLFKGPRDYNPISSSICHLTNESDGHTTSLYGIGFGPFIITNKHLFRRNNGTLVVQSLHGVFKVKDTTTLQQHLVDGRDMIIIRMPKDFPPFPQKLKFREPQREERICLVTTNFQTKSMSSMVSDTSCTFPSGDGIFWKHWIQTKDGQCGSPLVSTRDGFIVGIHSASNFTNTNNYFTSVPKNFMELLTNQEAQQWVSGWRLNADSVLWGGHKVFMVKPEEPFQPVKEATQL

Variants of: B1
Test: raw area under fraction-flipped curve 0-4 h after induction (AUC4h, not background-subtracted), DNA-recorder readout of cleavage of the substrate (dimensionless); higher = more cleavage of the substrate by the protease variant
Conditions: temperature: 34 °C; time window: 0-4 h after rhamnose induction
Method: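 In vivo DNA recorder in E. coli TOP10(DE3) ΔrhaA at 34 °C. Each TEVp single-site mutant (parent TEVp 0) is paired with a single-site variant of the 7-mer TEVs (canonical ENLYFQ|S). The substrate sits between flexible linkers in a Bxb1-sfGFP-TEVs-SsrA fusion, so cleavage stabilises Bxb1 and speeds flipping of a recombination array, read by NGS. The value is the raw area under the fraction-flipped curve over 0-4 h after rhamnose induction (AUC4h), with ≥20 reads per time point. It is not background-subtracted; inactive controls average about 0.047.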
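Note: Bxb1 expression induced with 0.2% (w/v) L-rhamnose at OD600 near 0.5, cultures sampled hourly, flipped fraction per protease–substrate barcode pair counted by paired-end Illumina sequencing.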

MGESLFKGPRDYNPISSSICHLTNESDGHTTSLYGIGFGPFIITNKHLFRRNNGTLVVQSLHGVFKVKDTTTLQQHLVDGRDMIIIRMPKDFPPFPQKLKFREPQREERICLVTTNFQTKSMSSFVSDTSCTFPSGDGIFWKHWIQTKDGQCGSPLVSTRDGFIVGIHSASNFTNTNNYFTSVPKNFMELLTNQEAQQWVSGWRLNADSVLWGGHKVFMVKPEEPFQPVKEATQL [M125F]
area with substrate ENLYFQA: 0.123 | area with substrate ENLYFQC: 0.113 | area with substrate ENLYFQH: 0.0809 | area with substrate ENLYFQI: 0.0617 | area with substrate ENLYFQK: 0.0703 | area with substrate ENLYFQL: 0.047 | area with substrate ENLYFQM: 0.0849 | area with substrate ENLYFQN: 0.0677 | area with substrate ENLYFQS: 0.105 | area with substrate ENLYFQT: 0.0587 | area with substrate ENLYFQY: 0.0832

MGESLFKGPRDYNPISSSICHLTNESDGHTTSLYGIGFGPFIITNKHLFRRNNGTLVVQSLHGVFKVKDTTTLQQHLVDGRDMIIIRMPKDFPPFPQKLKFREPQREERICLVTTNFETKSMSSMVSDTSCTFPSGDGIFWKHWIQTKDGQCGSPLVSTRDGFIVGIHSASNFTNTNNYFTSVPKNFMELLTNQEAQQWVSGWRLNADSVLWGGHKVFMVKPEEPFQPVKEATQL [Q118E]
area with substrate ENLYFQA: 0.0939 | area with substrate ENLYFQC: 0.102 | area with substrate ENLYFQG: 0.0915 | area with substrate ENLYFQH: 0.0723 | area with substrate ENLYFQK: 0.0505 | area with substrate ENLYFQL: 0.0461 | area with substrate ENLYFQR: 0.0645 | area with substrate ENLYFQS: 0.0986 | area with substrate ENLYFQV: 0.0754 | area with substrate ENLYFQW: 0.0648

MGESLFKGPRDYNPISSSICHLTNESDGHTTSLYGIGFGPFIITNKHLFRRNNGTLVVQSLHGVFKVKDTTTLQQHLVDGRDMIIIRMPKDFPPFPQKLKFREPQREERICLVTTIFQTKSMSSMVSDTSCTFPSGDGIFWKHWIQTKDGQCGSPLVSTRDGFIVGIHSASNFTNTNNYFTSVPKNFMELLTNQEAQQWVSGWRLNADSVLWGGHKVFMVKPEEPFQPVKEATQL [N116I]
area with substrate ENLYFQA: 0.0713 | area with substrate ENLYFQI: 0.0613 | area with substrate ENLYFQN: 0.0786 | area with substrate ENLYFQS: 0.0912

MGESLFKGPRDYNPISSSICHLTNESDGHTTSLYGIGFGPFIITNKHLFRRNNGTLVVQSLHGVFKVKDTTTLQQHLVDGRDMIIIRMPKDFPPFPQKLKFREPQREERICLVSTNFQTKSMSSMVSDTSCTFPSGDGIFWKHWIQTKDGQCGSPLVSTRDGFIVGIHSASNFTNTNNYFTSVPKNFMELLTNQEAQQWVSGWRLNADSVLWGGHKVFMVKPEEPFQPVKEATQL [T114S]
area with substrate ENLYFQA: 0.107 | area with substrate ENLYFQC: 0.133 | area with substrate ENLYFQD: 0.0755 | area with substrate ENLYFQH: 0.0848 | area with substrate ENLYFQI: 0.058 | area with substrate ENLYFQK: 0.0709 | area with substrate ENLYFQL: 0.0722 | area with substrate ENLYFQM: 0.0634 | area with substrate ENLYFQP: 0.0828 | area with substrate ENLYFQR: 0.0652 | area with substrate ENLYFQS: 0.111 | area with substrate ENLYFQT: 0.0741 | area with substrate ENLYFQV: 0.0755

MGESLFKGPRDYNPISSSICHLTNESDGHTTSLYGIGFGPFIITNKHLFRRNNGTLVVQSLHGVFKVKDTTTLQQHLVDGRDMIIIRMPKDFPPFPQKLKFREPQREERICLVGTNFQTKSMSSMVSDTSCTFPSGDGIFWKHWIQTKDGQCGSPLVSTRDGFIVGIHSASNFTNTNNYFTSVPKNFMELLTNQEAQQWVSGWRLNADSVLWGGHKVFMVKPEEPFQPVKEATQL [T114G]
area with substrate ENLYFQA: 0.13 | area with substrate ENLYFQE: 0.0493 | area with substrate ENLYFQF: 0.0973 | area with substrate ENLYFQG: 0.0941 | area with substrate ENLYFQH: 0.0858 | area with substrate ENLYFQI: 0.0547 | area with substrate ENLYFQM: 0.0939 | area with substrate ENLYFQN: 0.0834 | area with substrate ENLYFQS: 0.122 | area with substrate ENLYFQT: 0.0794

MGESLFKGPRDYNPISSSICHLTNESDGHTTSLYGIGFGPFIITNKHLFRRNNGTLVVQSLHGVFKVKDTTTLQQHLVDGRDMIIIRMPKDFPPFPQKLKFREPQREERICLVTTNIQTKSMSSMVSDTSCTFPSGDGIFWKHWIQTKDGQCGSPLVSTRDGFIVGIHSASNFTNTNNYFTSVPKNFMELLTNQEAQQWVSGWRLNADSVLWGGHKVFMVKPEEPFQPVKEATQL [F117I]
area with substrate ENLYFQA: 0.09 | area with substrate ENLYFQC: 0.104 | area with substrate ENLYFQD: 0.0622 | area with substrate ENLYFQH: 0.0302 | area with substrate ENLYFQL: 0.0623 | area with substrate ENLYFQN: 0.0782 | area with substrate ENLYFQP: 0.0698 | area with substrate ENLYFQR: 0.0664 | area with substrate ENLYFQS: 0.0956 | area with substrate ENLYFQT: 0.0703

MGESLFKGPRDYNPISSSICHLTNESDGHTTSLYGIGFGPFIITNKHLFRRNNGTLVVQSLHGVFKVKDTTTLQQHLVDGRDMIIIRMPKDFPPFPQKLKFREPQREERICLVTTNYQTKSMSSMVSDTSCTFPSGDGIFWKHWIQTKDGQCGSPLVSTRDGFIVGIHSASNFTNTNNYFTSVPKNFMELLTNQEAQQWVSGWRLNADSVLWGGHKVFMVKPEEPFQPVKEATQL [F117Y]
area with substrate ENLYFQA: 0.0681 | area with substrate ENLYFQD: 0.0722 | area with substrate ENLYFQE: 0.0683 | area with substrate ENLYFQF: 0.0885 | area with substrate ENLYFQK: 0.0549 | area with substrate ENLYFQM: 0.0919 | area with substrate ENLYFQN: 0.0847 | area with substrate ENLYFQP: 0.0822 | area with substrate ENLYFQR: 0.0374 | area with substrate ENLYFQS: 0.107

MGESLFKGPRDYNPISSSICHLTNESDGHTTSLYGIGFGPFIITNKHLFRRNNGTLVVQSLHGVFKVKDTTTLQQHLVDGRDMIIIRMPKDFPPFPQKLKFREPQREERICLETTNFQTKSMSSMVSDTSCTFPSGDGIFWKHWIQTKDGQCGSPLVSTRDGFIVGIHSASNFTNTNNYFTSVPKNFMELLTNQEAQQWVSGWRLNADSVLWGGHKVFMVKPEEPFQPVKEATQL [V113E]
area with substrate ENLYFQA: 0.0612 | area with substrate ENLYFQC: 0.0671 | area with substrate ENLYFQF: 0.0543 | area with substrate ENLYFQG: 0.0447 | area with substrate ENLYFQI: 0.0524 | area with substrate ENLYFQK: 0.043 | area with substrate ENLYFQN: 0.0556 | area with substrate ENLYFQP: 0.0587 | area with substrate ENLYFQQ: 0.0523 | area with substrate ENLYFQS: 0.0656 | area with substrate ENLYFQV: 0.0413 | area with substrate ENLYFQY: 0.0605

MGESLFKGPRDYNPISSSICHLTNESDGHTTSLYGIGFGPFIITNKHLFRRNNGTLVVQSLHGVFKVKDTTTLQQHLVDGRDMIIIRMPKDFPPFPQKLKFREPQREERIQLVTTNFQTKSMSSMVSDTSCTFPSGDGIFWKHWIQTKDGQCGSPLVSTRDGFIVGIHSASNFTNTNNYFTSVPKNFMELLTNQEAQQWVSGWRLNADSVLWGGHKVFMVKPEEPFQPVKEATQL [C111Q]
area with substrate ENLYFQA: 0.123 | area with substrate ENLYFQI: 0.0722 | area with substrate ENLYFQK: 0.0577 | area with substrate ENLYFQL: 0.0638 | area with substrate ENLYFQQ: 0.0807 | area with substrate ENLYFQR: 0.0612 | area with substrate ENLYFQS: 0.107 | area with substrate ENLYFQV: 0.0587 | area with substrate ENLYFQW: 0.061 | area with substrate ENLYFQY: 0.0746

MGESLFKGPRDYNPISSSICHLTNESDGHTTSLYGIGFGPFIITNKHLFRRNNGTLVVQSLHGVFKVKDTTTLQQHLVDGRDMIIIRMPKDFPPFPQKLKFREPQREERICLVTTNFQNKSMSSMVSDTSCTFPSGDGIFWKHWIQTKDGQCGSPLVSTRDGFIVGIHSASNFTNTNNYFTSVPKNFMELLTNQEAQQWVSGWRLNADSVLWGGHKVFMVKPEEPFQPVKEATQL [T119N]
area with substrate ENLYFQA: 0.13 | area with substrate ENLYFQC: 0.169 | area with substrate ENLYFQG: 0.117 | area with substrate ENLYFQH: 0.0909 | area with substrate ENLYFQI: 0.0524 | area with substrate ENLYFQK: 0.0559 | area with substrate ENLYFQL: 0.0674 | area with substrate ENLYFQN: 0.11 | area with substrate ENLYFQS: 0.117 | area with substrate ENLYFQT: 0.0705 | area with substrate ENLYFQV: 0.0594 | area with substrate ENLYFQW: 0.0602 | area with substrate ENLYFQY: 0.0956
